Data on 65 cell lines can be found in the supplement of paper PMC4967469.

The IC50 comes from the fitted curve, where viability falls to half of the control; fits outside the tested doses are given as limits. AUC sums up the same curve from the lowest dose to the 256-fold higher top dose; values near 1 show little effect.

Compound in the assay: N#CC[C@H](C1CCCC1)n1cc(-c2ncnc3[nH]ccc23)cn1 [Ruxolitinib]
Nature of the assay: Viability of human cancer cell lines after 72 h of drug (GDSC screen). How it is done: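 Human cancer cell lines in 384-well plates, medium with 10% serum, drug for 72 h over a 256-fold dose range (nine 2-fold or five 4-fold steps up to the top dose). Adherent lines were fixed and stained with the nucleic acid dye Syto60, suspension lines read with resazurin; signal relative to control wells, capped at 0 and 100%. One two-parameter sigmoid per drug and line, fitted in a mixed model over all curves with the slope shared within a line.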

As for “COLO-320-HSR (large intestine, suspension, top dose 5.24 µM)”, the AUC turned out to be 0.98 and the IC50 is above 5.24 µM.

Regarding “NCI-H2009 (lung adenocarcinoma, adherent, top dose 5.24 µM)”, the AUC came to 0.985 and the IC50 is above 5.24 µM.

Turning to “OCUM-1 (stomach, adherent, top dose 5.24 µM)”, the AUC was found to be 0.985 and the IC50 was above 5.24 µM.

Regarding “HuP-T3 (pancreas, adherent, top dose 5.24 µM)”, the AUC turned out to be 0.979 and the IC50 is above 5.24 µM.

On to “OVCAR-4 (ovary, adherent, top dose 5.24 µM)”, for which the AUC worked out at 0.964 and the IC50 was above 5.24 µM.

For the cell line “CCF-STTG1 (glioma, adherent, top dose 5.24 µM)”, the AUC came to 0.986 and the IC50 is above 5.24 µM.

“BFTC-905 (bladder, adherent, top dose 5.24 µM)”: the AUC was 0.99 and the IC50 is above 5.24 µM.

On to “ES7 (Ewing sarcoma, adherent, top dose 5.24 µM)”, for which the AUC was determined as 0.955 and the IC50 was above 5.24 µM.

Consider “769-P (kidney, adherent, top dose 5.24 µM)”, for which the AUC came to 0.967 and the IC50 is above 5.24 µM.

“OCI-AML5 (acute myeloid leukaemia, suspension, top dose 5.24 µM)”: the AUC came out at 0.965 and the IC50 was above 5.24 µM.

With “COLO-668 (small cell lung carcinoma, adherent, top dose 5.24 µM)”, the AUC is 0.979 and the IC50 was above 5.24 µM.

As to “MOLT-4 (lymphoblastic leukaemia, suspension, top dose 5.24 µM)”, the AUC is 0.969 and the IC50 was above 5.24 µM.

Regarding “P31-FUJ (acute myeloid leukaemia, suspension, top dose 5.24 µM)”, the AUC was determined as 0.996 and the 50% inhibitory concentration (IC50) is above 5.24 µM.

As for “NEC8 (testis, adherent, top dose 5.24 µM)”, the AUC was determined as 0.991 and the IC50 was above 5.24 µM.

As for “EW-16 (Ewing sarcoma, adherent, top dose 5.24 µM)”, the AUC is 0.985 and the IC50 is above 5.24 µM.

For “SIG-M5 (acute myeloid leukaemia, suspension, top dose 5.24 µM)”, the AUC was found to be 0.99 and the IC50 was above 5.24 µM.

For “TE-8 (oesophagus, adherent, top dose 5.24 µM)”, the AUC came to 0.983 and the IC50 is above 5.24 µM.

In the case of “MEL-JUSO (melanoma, adherent, top dose 5.24 µM)”, the AUC is 0.982 and the IC50 is above 5.24 µM.

On to “SW962 (urogenital system, adherent, top dose 5.24 µM)”, for which the AUC turned out to be 0.981 and the IC50 is above 5.24 µM.

In the case of “LC-1-sq (lung squamous cell carcinoma, adherent, top dose 5.24 µM)”, the AUC is 0.983 and the IC50 is above 5.24 µM.

Turning to “EPLC-272H (lung squamous cell carcinoma, adherent, top dose 5.24 µM)”, the AUC came to 0.968 and the IC50 is above 5.24 µM.

As for “MG-63 (osteosarcoma, adherent, top dose 5.24 µM)”, the AUC is 0.983 and the IC50 was above 5.24 µM.

As to “SW837 (large intestine, adherent, top dose 5.24 µM)”, the AUC came out at 0.982 and the IC50 was above 5.24 µM.

Turning to “CHP-212 (neuroblastoma, adherent, top dose 5.24 µM)”, the AUC was determined as 0.875 and the IC50 is 4.47 µM.

In the case of “ASH-3 (thyroid, adherent, top dose 5.24 µM)”, the AUC stood at 0.988 and the IC50 was above 5.24 µM.

Consider “CPC-N (small cell lung carcinoma, suspension, top dose 5.24 µM)”, for which the AUC worked out at 0.985 and the IC50 is above 5.24 µM.

In the case of “MDA-MB-436 (breast, adherent, top dose 5.24 µM)”, the AUC was determined as 0.984 and the IC50 is above 5.24 µM.

“NCI-H510A (small cell lung carcinoma, semi-adherent, top dose 5.24 µM)”: the AUC turned out to be 0.97 and the IC50 was above 5.24 µM.

As for “HCE-4 (oesophagus, adherent, top dose 5.24 µM)”, the AUC is 0.991 and the IC50 is above 5.24 µM.

On to “NB14 (neuroblastoma, adherent, top dose 5.24 µM)”, for which the AUC was 0.988 and the IC50 is above 5.24 µM.

On to “HCC-827 (lung adenocarcinoma, adherent, top dose 5.24 µM)”, for which the AUC came to 0.976 and the IC50 was above 5.24 µM.

For the cell line “SK-N-SH (neuroblastoma, adherent, top dose 5.24 µM)”, the AUC was found to be 0.977 and the 50% inhibitory concentration (IC50) is above 5.24 µM.

As to “LS-123 (large intestine, adherent, top dose 5.24 µM)”, the AUC was 0.96 and the IC50 is above 5.24 µM.

For the cell line “HO-1-N-1 (head and neck, adherent, top dose 5.24 µM)”, the AUC was determined as 0.987 and the IC50 is above 5.24 µM.

Consider “KU812 (chronic myeloid leukaemia, suspension, top dose 5.24 µM)”, for which the AUC was found to be 0.988 and the IC50 is above 5.24 µM.

On to “Ca9-22 (head and neck, adherent, top dose 5.24 µM)”, for which the AUC turned out to be 0.982 and the IC50 was above 5.24 µM.

Regarding “EW-11 (Ewing sarcoma, adherent, top dose 5.24 µM)”, the AUC worked out at 0.98 and the IC50 was above 5.24 µM.

On to “NCI-H650 (lung adenocarcinoma, adherent, top dose 5.24 µM)”, for which the AUC was 0.968 and the half-maximal inhibitory concentration (IC50) was above 5.24 µM.

“Hs939-T (melanoma, adherent, top dose 5.24 µM)”: the AUC was determined as 0.986 and the IC50 was above 5.24 µM.

Turning to “JURL-MK1 (chronic myeloid leukaemia, suspension, top dose 5.24 µM)”, the AUC stood at 0.976 and the IC50 is above 5.24 µM.

“HA7-RCC (kidney, adherent, top dose 5.24 µM)”: the AUC is 0.984 and the IC50 was above 5.24 µM.

“JSC-1 (B-cell lymphoma, suspension, top dose 5.24 µM)”: the AUC was determined as 0.78 and the IC50 stood at 2.13 µM.

As to “OVK-18 (ovary, adherent, top dose 5.24 µM)”, the AUC worked out at 0.985 and the IC50 is above 5.24 µM.

For “EW-24 (Ewing sarcoma, semi-adherent, top dose 5.24 µM)”, the AUC is 0.992 and the IC50 was above 5.24 µM.

Consider “YKG-1 (glioma, adherent, top dose 5.24 µM)”, for which the AUC was 0.986 and the IC50 was above 5.24 µM.

As for “HTC-C3 (thyroid, adherent, top dose 5.24 µM)”, the AUC amounted to 0.984 and the IC50 was above 5.24 µM.

In the case of “TGBC24TKB (biliary tract, adherent, top dose 5.24 µM)”, the AUC came to 0.989 and the IC50 was above 5.24 µM.

Take “MS751 (cervix, adherent, top dose 5.24 µM)”: the AUC is 0.99 and the IC50 is above 5.24 µM.

As for “NCI-H596 (lung adenocarcinoma, adherent, top dose 5.24 µM)”, the AUC came to 0.957 and the IC50 was above 5.24 µM.

Consider “HCC1395 (breast, adherent, top dose 5.24 µM)”, for which the AUC worked out at 0.98 and the IC50 was above 5.24 µM.

Consider “NCI-H1975 (lung adenocarcinoma, adherent, top dose 5.24 µM)”, for which the AUC stood at 0.974 and the IC50 was above 5.24 µM.

As for “KP-2 (pancreas, adherent, top dose 5.24 µM)”, the AUC was 0.986 and the half-maximal inhibitory concentration (IC50) was above 5.24 µM.

For the cell line “CW-2 (large intestine, adherent, top dose 5.24 µM)”, the AUC came to 0.984 and the IC50 was above 5.24 µM.

Regarding “SNG-M (endometrium, adherent, top dose 5.24 µM)”, the AUC is 0.983 and the IC50 is above 5.24 µM.

On to “GCT (soft tissue, adherent, top dose 5.24 µM)”, for which the AUC is 0.989 and the IC50 is above 5.24 µM.

Take “RD (rhabdomyosarcoma, adherent, top dose 5.24 µM)”: the AUC amounted to 0.985 and the IC50 is above 5.24 µM.

As to “G-292 Clone A141B1 (osteosarcoma, adherent, top dose 5.24 µM)”, the AUC stood at 0.972 and the IC50 was above 5.24 µM.

In the case of “HT55 (large intestine, adherent, top dose 5.24 µM)”, the AUC worked out at 0.99 and the IC50 is above 5.24 µM.

In the case of “BE2-M17 (neuroblastoma, adherent, top dose 5.24 µM)”, the AUC was found to be 0.987 and the IC50 was above 5.24 µM.

On to “SW780 (bladder, adherent, top dose 5.24 µM)”, for which the AUC is 0.986 and the IC50 is above 5.24 µM.

As to “TCCSUP (bladder, adherent, top dose 5.24 µM)”, the AUC is 0.985 and the IC50 is above 5.24 µM.

“TK10 (kidney, adherent, top dose 5.24 µM)”: the AUC is 0.981 and the IC50 was above 5.24 µM.

Regarding “BICR22 (head and neck, adherent, top dose 5.24 µM)”, the AUC came to 0.983 and the IC50 is above 5.24 µM.

For “KARPAS-45 (lymphoblastic leukaemia, suspension, top dose 5.24 µM)”, the AUC is 0.862 and the IC50 came to 3.33 µM.

On to “SU-DHL-1 (anaplastic large cell lymphoma, suspension, top dose 5.24 µM)”, for which the AUC stood at 0.956 and the IC50 was above 5.24 µM.
